The supplement of paper PMC4166925
± gives the standard deviation of the averaged measurements. Whole data set: some 33,000 sequences, median “E-score (dimensionless, -0.5 to 0.5)” near -0.046, cut for the highest 2% near 0.36. The list shows a part of the results.

System: T1, SpTbr T-box DNA-binding domain (GST fusion)
T1 sequence: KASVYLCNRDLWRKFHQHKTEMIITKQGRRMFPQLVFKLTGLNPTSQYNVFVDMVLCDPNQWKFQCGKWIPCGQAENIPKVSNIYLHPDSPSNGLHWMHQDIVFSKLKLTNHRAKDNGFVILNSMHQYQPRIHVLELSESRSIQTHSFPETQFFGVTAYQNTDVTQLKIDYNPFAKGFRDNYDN
Test: PBM E-score of 8-mer (E-score (dimensionless, -0.5 to 0.5)); Tbr is Tbrain of the sea star Patiria miniata (Pm) or the sea urchin Strongylocentrotus purpuratus (Sp); higher = stronger binding preference; most listed sequences are background and not binding sites
Conditions: the construct has about 5 more residues each side
Method in brief: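 GST-fused Tbr T-box DNA-binding domains (the whole T-box plus about five flanking residues) were expressed in BL21 E. coli at 20 °C and purified by glutathione affinity chromatography. Universal Agilent oligonucleotide arrays were made double-stranded by primer extension, incubated with 200 nM protein in PBS (pH 7.5), then scanned and quantified. Every ungapped 8-mer was scored from probe intensities. The Universal PBM Analysis Suite gave each word an enrichment E-score, averaged over duplicate arrays.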

Row | Sequence | PBM E-score of 8-mer
1 | ACAGGTGG | 0.316 ± 0.026
2 | CGCCCACA | 0.247 ± 0.013
3 | AAGGTAGC | 0.0871 ± 0.026
4 | CCTGCACG | -0.0522 ± 0.03
5 | ATGCTACA | -0.0831 ± 0.002
6 | CTATTGAC | 0.0121 ± 0.067
7 | CGTAAGAA | -0.113 ± 0.036
8 | AGAGCTGC | -0.0124 ± 0.046
9 | AGTATAGC | 0.0777 ± 0.026
10 | GATAATCC | -0.04 ± 0.076
11 | AAGTCCCT | 0.0335 ± 0.044
12 | TCCCCTCA | -0.0995 ± 0.007
13 | GGAGAAGA | -0.251 ± 0.07
14 | CTTTGCTA | 0.0404 ± 0.057
15 | GCGTTTAC | 0.0503 ± 0.062
16 | CGCCGTAA | -0.0199 ± 0.046
17 | AAACTCGA | 0.0998 ± 0.05
18 | CTGCTCGA | -0.213 ± 0.027
19 | ACCATATG | 0.1 ± 0.054
20 | TAGCCCCA | -0.0427 ± 0.0069
21 | CAGAAGAC | -0.192 ± 0.033
22 | CGCGTGCC | 0.103 ± 0.14

Row | Sequence | PBM E-score of 8-mer
23 | AGGTCCAG | -0.179 ± 0.042
24 | CCCCCTCC | -0.0942 ± 0.036
25 | GTGAGGCA | 0.137 ± 0.011
26 | CTAAGGAA | -0.158 ± 0.034
27 | ACACATGG | 0.313 ± 0.015
28 | ATGTGCCC | -0.0447 ± 0.038
29 | CCTGAGTC | -0.0308 ± 0.053
30 | GAGAACGC | 0.275 ± 0.0087
31 | GCTTAAAC | 0.0837 ± 0.029
32 | CCGCATAG | -0.113 ± 0.031
33 | CTCGCCAA | 0.175 ± 0.0053
34 | ACCATGTA | 0.0437 ± 0.0072
35 | ATTTGGTG | 0.119 ± 0.043
36 | ATCACCGG | -0.358 ± 0.036
37 | ATTCCGTA | -0.194 ± 0.024
38 | CATTACTC | -0.17 ± 0.064
39 | AGGAGCAG | -0.25 ± 0.074
40 | GTAATGAA | -0.0709 ± 0.044
41 | AAACCATT | -0.08 ± 0.05
42 | ACGCACCC | 0.215 ± 0.032
43 | CTCTGTAC | -0.0439 ± 0.087
44 | ATCAGAAT | -0.0403 ± 0.028

Row | Sequence | PBM E-score of 8-mer
45 | CTACGTTC | -0.128 ± 0.027
46 | GAACGCTC | 0.0472 ± 0.045
47 | AGCCCGCC | -0.164 ± 0.18
48 | AGCAATCA | -0.118 ± 0.0093
49 | ATATGACC | -0.073 ± 0.1
50 | CTTCATGA | -0.182 ± 0.062
51 | CAGCATGG | 0.0191 ± 0.067
52 | GAAATACC | -0.079 ± 0.06
53 | GAAGCCCC | -0.339 ± 0.045
54 | AGGCAGGG | -0.197 ± 0.047
55 | AGGAGAGG | -0.247 ± 0.019
56 | CAGCGAGC | 0.172 ± 0.012
57 | ATAGGAAT | -0.319 ± 0.026
58 | GCCCCGCC | -0.086 ± 0.041
59 | CCTTCATA | 0.104 ± 0.017
60 | ACTAACGA | 0.098 ± 0.0011
61 | CGTCGTGA | -0.0205 ± 0.0093
62 | AGGGGACT | -0.143 ± 0.083
63 | GTGCGCAA | 0.137 ± 0.026
64 | ACCTTTGG | 0.0445 ± 0.018
65 | GAGTTAGC | 0.0856 ± 0.074
66 | TCCCTCGA | -0.0267 ± 0.0017

Row | Sequence | PBM E-score of 8-mer
67 | CGAACGCG | 0.237 ± 0.0053
68 | GCAACTAA | 0.0109 ± 0.0072
69 | CGTTTCGC | 0.178 ± 0.0072
70 | CAAGAAGC | -0.13 ± 0.013
71 | AGGCCTCA | 0.0481 ± 0.029
72 | AGTAAACA | 0.101 ± 0.057
73 | GTCGTCTA | -0.147 ± 0.04
74 | CCCCGGAC | -0.236 ± 0.042
75 | CACCCGGA | 0.2288 ± 0.001
76 | CTTACAGC | -0.08 ± 0.06
77 | CCACTCAG | -0.0534 ± 0.087
78 | CAACGGAG | -0.0759 ± 0.029
79 | CTTACTAC | -0.165 ± 0.02
80 | ATCGCCCC | -0.0732 ± 0.032
81 | GGAGGGAC | -0.149 ± 0.036
82 | CAGGACTG | -0.136 ± 0.017
83 | ATTTTTGG | -0.132 ± 0.042
84 | ACTAGTGC | 0.0994 ± 0.059
85 | ACACTAAC | 0.303 ± 0.03
86 | CACACCCA | 0.421 ± 0.02
